From PubChem BioAssay AID1346428 (National Center for Advancing Translational Sciences (NCATS), 2018)
In all, about 48,000 compounds went through this assay and about 1,200 (2.5%) were called active. Not shown: some 2% with an inconclusive outcome.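 Rule for the calls: active = activation of at least 60% and not above a set upper limit (about 1 call in 100 departs from these limits); inconclusive = activation of 40% to 60%, or above that upper limit; inactive = activation under 40%.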 The list shows a part of the results.

Target: Probable G-protein coupled receptor 32 (Homo sapiens) (UniProt O75388)
Sequence of UniProt O75388 (O75388 whole entry, looked up): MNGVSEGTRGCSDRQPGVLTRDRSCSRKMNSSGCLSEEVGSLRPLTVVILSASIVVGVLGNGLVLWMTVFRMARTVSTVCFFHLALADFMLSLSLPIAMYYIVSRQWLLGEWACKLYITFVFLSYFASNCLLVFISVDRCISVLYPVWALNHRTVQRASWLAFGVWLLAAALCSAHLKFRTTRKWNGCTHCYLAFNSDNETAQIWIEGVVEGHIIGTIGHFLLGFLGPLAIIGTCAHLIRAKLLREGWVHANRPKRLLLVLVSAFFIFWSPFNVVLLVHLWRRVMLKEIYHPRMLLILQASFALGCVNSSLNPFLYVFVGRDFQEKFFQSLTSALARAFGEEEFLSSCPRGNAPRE
Experiment: qHTS for Agonists of Human Resolvin D1 Receptor DRV1; note: 0% is about no effect
Conditions: CHO-K1 GPR32 beta-arrestin PathHunter luminescence, 90 min; at 76.9 µM; hits give high values; zero percent set by DMSO-only wells
Method in brief: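 Agonism was scored by beta-Gal fragment complementation (chemiluminescent read, 1 h detection at ambient temperature) reporting beta-arrestin binding to GPR32 in engineered CHO-K1 cells. Compound treatment lasted 90 min at 37 C, normalized to a DMSO basal control.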

activation, inactive:
CCOc1ccc(NC(=O)Cn2nc(Cc3cccnc3)c3ccccc3c2=O)cc1 -1.92%
COc1ccccc1NC(=O)N1CCN(c2ccc3nnc(-c4ccc(F)cc4)n3n2)CC1 5.47%
Cc1cccc(N2CCN(c3ccc4cc(S(=O)(=O)N5CCC(C)CC5)ccc4n3)CC2)c1C -3.01%
CC(C)C(=O)Nc1nnc(S(=O)(=O)N2CCc3ccccc32)s1 -5.97%
CCOC(=O)c1c(C)oc2ncnc(Nc3cccc(C(F)(F)F)c3)c12 3.19%
CCc1ccc(NC(=O)CC(NCc2cccnc2)C(=O)O)cc1 (centres undefined) -1.08%
O=c1oc2ccccc2cc1-c1cn2cc(Cc3ccc(F)cc3)sc2n1 -7.17%
Cc1ccc(OCC(=O)Nc2ccc(OCc3cc(=O)n4c(C)csc4n3)cc2)cc1C -16.1%
Cc1ccc(Cn2ccnc2SCC(=O)NCc2ccccc2)cc1 -7.91%
CCOc1ccccc1Nc1sc(C(=O)c2ccccc2)c(N)c1C(=O)Nc1ccc(F)cc1 -50.9%
COc1ccc(CNC(=O)C(=O)NCC(c2ccco2)S(=O)(=O)c2ccc(Cl)cc2)cc1 (centres undefined) -15.5%
Cn1c(=O)c2c(nc(SCC(=O)Nc3ccccc3F)n2Cc2ccccc2F)n(C)c1=O 3.98%
CCOC(=O)c1cccc(NC(=O)Cn2ncc3c(=O)oc4ccccc4c32)c1 4.2%
Cc1ccc(NC(=O)c2ccc3c(c2)NC(=O)c2ccccc2S3)c(Cl)c1 -11.5%
Cc1nn(CC(=O)NC2CC2)c(=O)c2cc3cc(F)ccc3n12 1.89%
CSc1ccc(CCNC(=O)Cn2nc(C)n3c(cc4sccc43)c2=O)cc1 -12.5%
Cc1nc(-c2ccc(Cl)cc2)sc1CCNC(=O)C(=O)Nc1ccc2c(c1)OCO2 13.9%
COc1cccc(/C=C/c2nc(C#N)c(N3CCN(C)CC3)o2)c1 -0.806%
COc1cc(NC(=O)C2CCN(S(=O)(=O)c3c(C)noc3/C=C/c3ccccc3F)CC2)cc(OC)c1OC -19.8%
COc1cc(OC)c(NC(=O)CCc2c(C)nc3c4c(C)cc(C)nc4nn3c2C)cc1Cl -14.1%
CCCCCN1C(C(=O)c2ccccc2)=C(OC(=O)CC)c2ccccc2S1(=O)=O -48%
CC(NC(=O)c1ccc2c(c1)sc1nc(-c3ccc(F)cc3)cn12)C12CC3CC(CC(C3)C1)C2 (centres undefined) -10.5%
FC(F)(F)c1cccc(Nc2c3c(nc4ccc(Cl)cc24)CCC3)c1 4.28%
Cc1ccc(CCNC(=O)c2ccc(Nc3nc4ccccc4n4nnnc34)cc2)cc1 7.16%
Cc1cccc(NC(=O)c2cc3c(=O)n(Cc4cccnc4)ccc3nc2C)c1 -7.31%
N#Cc1cc2c(=O)n3ccccc3nc2n(-c2nnc(SCc3ccccc3Cl)s2)c1=O -8.69%
CCN(CCCNC(=O)Cn1ncc2c([nH]c3ccc(C)cc32)c1=O)c1ccccc1 -6.26%
CCC(Sc1nc2n[nH]c(C)c2c(=N)n1-c1ccccc1Cl)C(=O)N(CC)CC (centres undefined) -18.3%
CC1Cn2c(C(=O)NCc3ccccc3Cl)cc3cccc(c32)S1 (centres undefined) -17.8%
COc1ccc(NC(=O)CCn2cnc3onc(-c4ccc(F)cc4)c3c2=O)cc1OC 35.2%
O=C(NCC(c1cccs1)S(=O)(=O)c1cccs1)c1c(F)cccc1F (centres undefined) -0.686%
CCCOc1ccc(C(=O)N(Cc2ccco2)Cc2ccco2)cc1 -24.8%
CC(C)c1nn2c(=O)cc(COC(=O)c3ccc(NC(=O)c4cccs4)cc3)nc2s1 -11.4%
CCOC(=O)Cn1c(=O)n(CC2CCCO2)c2nc(-c3cc(OC)ccc3OC)nc(C(N)=O)c21 (centres undefined) -15.7%
Cc1ccc(S(=O)(=O)NCCc2nnc3ccc(SCC(=O)Nc4ccc(F)cc4F)nn23)cc1 -8.66%
COc1ccc(CCNC(=O)CCc2c(C)nc3cc(-c4cccc(F)c4)nn3c2C)cc1OC -5.61%
COc1ccnc(CS(=O)c2nc3ccc(OC(F)F)cc3[nH]2)c1OC (centres undefined) 34.6%
Cc1ccccc1OCC(=O)Nc1ccccc1OCc1cc(=O)n2ccccc2n1 -10.1%
COc1ccc(OC(=O)c2nc(SCc3ccccc3C)ncc2Cl)cc1 31.8%
Cc1cc(C)c2c(CC(=O)Nc3cc(C(F)(F)F)ccc3Cl)coc2c1 -2.79%
Cc1ccc(CCNC(=O)CCCc2nnc3n(C)c(=O)c4sccc4n23)cc1 15.6%
COc1cccc(CSc2nc3n(n2)C(CC(C)C)C(C(=O)Nc2ccccc2C)=C(C)N3)c1 (centres undefined) -5.47%
COc1ccc(C(=O)Nc2cccc(C(=O)OCc3cc(=O)n4c5c(sc4n3)CCCC5)c2)cc1 -9.68%
COc1ccccc1-n1c(=O)n(C)c2c(C(N)=O)nc(-c3cccc(OC)c3OC)nc21 -21.9%
Cc1ccc(-n2ncc(C(=O)NCc3ccco3)c2C2CCN(C(=O)OC(C)(C)C)CC2)cc1 -18.3%
CNC(=O)C1CCC(Cn2c(=O)c3sccc3n(CC(=O)N3CCC(C)CC3)c2=O)CC1 (centres undefined) -5.11%
CN(C(=O)c1c(O)c2ccccc2n(C)c1=O)c1ccccc1 23.2%
Cc1cc(C)c(Cn2c(=O)n(CCCC(=O)NCc3ccc4c(c3)OCO4)c(=O)c3sccc32)c(C)c1 -20.8%
OCc1ccccn1 -4.52%
COC(=O)c1cc(S(=O)(=O)NCC2CCN(Cc3cccc(F)c3)CC2)cn1C -11.7%
Cn1c(=O)c2c(-c3ccc(Cl)cc3)n(CCc3ccccc3)cc2n(C)c1=O -6.57%
Cc1ccc2nc(Cl)c3cc(C(=O)N4CCCCC4)sc3c2c1 -7.37%
COc1ccc(N2CCN(Cc3nc4c(c(=O)[nH]c(=O)n4C)n3Cc3ccccc3F)CC2)cc1 -14.8%
COc1ccc(CCNC(=O)c2cc(=O)c3cc(C)c(C)cc3o2)cc1OC 24.8%
Cn1nnc2c(NCc3c(F)cccc3F)ncnc21 0.0021%
COc1ccc(N(C(=O)Cn2nnc3ccccc32)C(C(=O)NCc2ccccc2)c2ccc(F)cc2)cc1 (centres undefined) -23.2%
Cn1c(=O)c2c(nc(SCC(=O)Nc3ccc(F)c(F)c3)n2Cc2ccccc2F)n(C)c1=O -0.387%
CCc1ccc(C(=O)CC2(O)C(=O)N(CCc3ccccc3)c3ccc(Cl)cc32)cc1 (centres undefined) -14.4%
O=C(NCCc1ccc(Cl)cc1)C1CCN(S(=O)(=O)c2ccc3[nH]ccc3c2)CC1 17.5%
O=C(COCc1cc(-c2ccc3c(c2)OCO3)on1)Nc1cc(Cl)ccc1O 15.6%
COc1ccc(-c2noc(CNC(=O)COc3cccc(C)c3C)n2)cc1 -12.4%
CC(C)c1ccc(Nc2c(-c3ccccn3)nc3ccccn23)cc1 -84.4%
CCOC(=O)c1c(C)oc2nc(C)nc(NCCCN3CCN(c4cc(C)ccc4C)CC3)c12 -2.82%
COc1ccc(-c2nc(CSCC(=O)NCc3ccccc3Cl)c(C)o2)cc1OC -23.7%
O=C(c1ccccc1)N1CCc2cc(CNS(=O)(=O)c3ccc(Cl)s3)ccc21 20.3%
CCc1ccc(C(=O)C(C)CN2CCCCC2)cc1 (centres undefined) -4.78%
O=C(CCSCc1cccc(Cl)c1)NCCc1ccc(Cl)cc1 -11.5%
COc1ccc(-n2c(SCC(=O)NCc3ccc(F)cc3)nc3c([nH]c4ccccc43)c2=O)cc1 -15.2%
Cc1oc(-c2ccc(Cl)cc2)nc1Cn1c(=O)cc(C)c2c(C)nn(-c3ccccc3)c21 -7.9%
Cc1nn2cc(-c3ccc(OC(C)C)cc3)nc2s1 -11.8%
Cn1c(=O)n(C)c2cc(N3CCOCC3)c(NS(=O)(=O)c3cccc(C#N)c3)cc21 -15.5%
COc1ccccc1CNC(=O)CCCCn1c(=O)c2ccccc2n(Cc2ccccc2F)c1=O 13.2%
CC(=O)Nc1cccc(NC(=O)Cn2cnc3c(oc4ccccc43)c2=O)c1 -3.85%
CCOc1ccc(NC(=O)c2c(C)oc3nc(C)nc(N4CCOCC4)c23)cc1 -14.3%
Cc1ccc(CNC(=O)CSc2nc3ccccc3nc2Cc2ccc(C)cc2)cc1 21%
Cc1ccc(-c2nc3c4c(-c5ccccc5)c(-c5ccccc5)oc4ncn3n2)cc1 9%
Cc1ccc(CCNC(=O)C2CCN(S(=O)(=O)c3ccc4c(ccn4C)c3)CC2)cc1 5.49%
Cc1cccc(-c2nc3c(cnn3-c3ccccc3)c(=O)n2-c2ccc(Cl)cc2)c1 -8.74%
COc1ccc(S(=O)(=O)NCC(c2ccco2)S(=O)(=O)c2cccs2)cc1F (centres undefined) -21.2%
COc1ccc(NC(=O)CSc2nc(C)cc(C)c2C(=O)Nc2ccccc2OC)cc1 -19.9%
O=C(C1CCCN(S(=O)(=O)c2cccc3nsnc23)C1)N1CCN(c2cccc(Cl)c2)CC1 (centres undefined) 48.6%
CCN(CC)c1nn2c(=O)c(C(=O)NCCc3cccc(C)c3)cnc2s1 -5.29%
Cc1ccc2nc(-c3ccccn3)c(Nc3ccccc3C)n2c1 -107%

activation, active:
COc1ccc(CCNC(=O)C(=O)NCC(c2cccs2)S(=O)(=O)c2ccc(F)cc2)cc1 (centres undefined) 85.1%
